Measured values taken from PubChem BioAssay (NCI).
Values joined by “and” are separate entries in the source; they are usually repeats but may differ in a detail not shown here. Equal entries are not always repeated.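 Protocol summary: plate cells (96-well), add compound at 5 concentrations, incubate 48 h, interpolate endpoints linearly. GI50 = concentration required for 50% inhibition of growth. The concentration for full growth arrest is given as TGI.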

These compounds were tested on NCI-H322M lung (assay: NCI anticancer screen, dose series, 48 h).

Row | SMILES | TGI | GI50
1 | O=C1CC2c3ccccc3CCC2c2ccccc21 (stereo unspecified) | > 100 µM | –
2 | C=C1C(=O)C=C[C@]2(C)CC[C@H]3C(=C)C(=O)O[C@@H]3[C@@H]12 | 40 µM | –
3 | O=c1cc(NC2CCN(CCCc3ccccc3)CC2)c2cc(Cl)ccc2o1 | 38.6 µM | 19.4 µM
4 | Cc1c(C(=O)/C=C/c2ccccc2)[n+](=O)c2ccccc2n1[O-] | 32.8 µM | –
5 | O=C(Nc1c(Cl)cc([N+](=O)[O-])cc1Cl)C(=O)C(C1OC(=O)c2ccccc21)[N+](=O)[O-] (stereo unspecified) | > 100 µM | –
6 | COc1nc2nccnc2c(=O)n1C | > 10 µM | –
7 | Cc1ccc(-c2nc3ccc(Cl)cc3c(=O)n2N2C(=O)CSC2c2ccccc2Cl)cc1 (stereo unspecified) | > 100 µM | 17.4 µM
8 | COc1ccc(/C=C/C(=O)C(CC2CCC2)C(=O)/C=C/c2ccc(OC)c(OC)c2)cc1OC | 7.55 µM | 2.55 µM
9 | C=C(Cl)C(C)(Cl)CCC(Br)C(C)(C)Cl (stereo unspecified) | > 100 µM | –
10 | C=CC[C@]12C=C(OC)[C@@H](O)[C@](OC)(C(c3cc(OC)c4c(c3)OCO4)[C@H]1C)[C@H]2OC(C)=O (stereo partly specified) | > 100 µM | –
11 | Nc1[nH]nc2nc3ccc(C(F)(F)F)cc3nc12 | > 100 µM | –
12 | Cc1ccc2[nH]c(O)c(N=Nc3ccc(S(N)(=O)=O)cc3)c2c1 | > 25 µM | 16.7 µM
13 | Clc1ccc(C=Nc2ccc3c(c2)Cc2ccccc2-3)c(Cl)c1 | > 100 µM | –
14 | c1ccc(C2Nc3ccccc3C3OCCCC23)cc1 (stereo unspecified) | > 100 µM | –
15 | COc1c(C(C)C)cc2c3c1OC(=O)[C@@]31CCCC(C)(C)C1CC2 (stereo partly specified) | > 100 µM | –
16 | O=[N+]([O-])/C(C(Cl)=C(Cl)Cl)=C(\N1CCCCC1)n1cncn1 | 33.8 µM | –
17 | C=C1CN2CC(=C)CN(C1)CS(=O)(=O)N1CC(=C)CN(CC(=C)C1)S(=O)(=O)N1CC(=C)CN(CC(=C)C1)S(=O)(=O)C2 | > 100 µM | –
18 | O=c1c2cc(Br)cc(Br)c2nc(CCCl)n1CCO | > 100 µM | –
19 | C/C(N=NC(=S)N(C)C)=C1\C=CC=CN1O | > 100 µM | < 0.1 µM
20 | C1CCC([PH+](C2CCCCC2)C2CCCCC2[PH+](C2CCCCC2)C2CCCCC2)CC1.O=C(C1[CH-]CCCC1)C1CCCC[N-]1.[Au] (stereo unspecified) | 1.24 µM | 0.305 µM
21 | CCC1(C)C=Cc2c(cc(O)c3c(=O)c4ccccc4n(C)c23)O1 (stereo unspecified) | > 10 µM | –
22 | O=C1/C(=C/c2ccc(Cl)cc2)CSc2ccccc21 | > 100 µM | –
23 | CN(C)CCOC1(Cc2ccc(F)cc2)CCC(C(C)(C)C)CC1 (stereo unspecified) | 17.1 µM and 23.2 µM | –
24 | On1c(-c2ccccc2)nc2ccccc2c1=S | > 100 µM | –

Row | SMILES | TGI | GI50
25 | O=C(O)[C@H](NS(=O)(=O)c1ccc([N+](=O)[O-])cc1)c1ccccc1 | > 100 µM | –
26 | O=C(N/N=C/c1cc(Br)cc(Br)c1[O-])c1ccccc1O.O=C(N/N=C/c1cc(Br)cc(Br)c1[O-])c1ccccc1O.[Cu+2] | 1.77 µM | –
27 | C=CCOc1ccc(C2C(C(=O)OCC)C(=O)CC(C)(O)C2C(=O)OCC)cc1OC (stereo unspecified) | > 100 µM | –
28 | OCc1ccc(C2CC(c3ccco3)=NN2c2ccccc2)o1 (stereo unspecified) | > 100 µM | –
29 | CSc1cnc2ccccc2c1SC1CN(Cc2ccccc2)c2ccccc2C1=O (stereo unspecified) | > 100 µM | –
30 | N#CC1=C(N)N(c2ccccc2)C(c2ccccc2)C1(C#N)C#N (stereo unspecified) | 39.4 µM | –
31 | CC1=NNC(=O)C1C(CC(=O)c1c[nH]c2ccccc12)C(=O)O (stereo unspecified) | > 100 µM | –
32 | O=C1CSC(c2ccc(Cl)cc2Cl)N1c1ccc(F)cc1 (stereo unspecified) | 32.9 µM | 17.5 µM
33 | [N-]=[N+]=NC1=C(c2ccccn2)C(=O)c2cccc3cccc1c23 | > 100 µM | –
34 | CN(C)CCN1C(=O)c2ccc3c4c(ccc(c24)C1=O)C(=O)N(CCN=C=S)C3=O | 0.574 µM | 0.11 µM
35 | Cc1ccc2c(c1)C(=O)C1(C2)Cc2cccc(C)c2C1=O (stereo unspecified) | > 100 µM | –
36 | CCn1c(SCc2ccc(C)cc2)nnc1-c1nn(-c2ccc(Cl)cc2Cl)c(-c2ccc(Cl)cc2)c1C | 13 µM | 2.71 µM
37 | COc1ccc(C2COc3cc(O)c(O)cc3C2)cc1 (stereo unspecified) | 157 µM | –
38 | O=C1[C@@H]2C(c3ccccc3F)=NO[C@@H]2C(=O)N1c1ccc(Cc2ccc(N3C(=O)[C@H]4C(c5ccccc5F)=NO[C@H]4C3=O)cc2)cc1 | > 100 µM | –
39 | C=CC/C=C/C/C=C/CCCCCCCc1cccc(O)c1C(=O)O | > 100 µM | –
40 | CCOC(=O)C1C2CCC1CC(=NNc1ccc([N+](=O)[O-])cc1[N+](=O)[O-])C2 (stereo unspecified) | > 50 µM | –
41 | Cc1cc(NCc2ccccc2)c2ccccc2[n+]1CCCCCCCCCC[n+]1c(C)cc(NCc2ccccc2)c2ccccc21 | 3.84 µM | –
42 | COc1cc(C(=O)c2cc(C)c3[nH]c4ccc(C)cc4c3c2C)cc(OC)c1OC | > 100 µM | < 0.01 µM
43 | Cc1ccc(S(=O)(=O)NC(=O)N[C@@H](Cc2cnc[nH]2)C(=O)O)cc1 | > 100 µM | –
44 | CCCCON(OC(=O)c1ccc2ccc3cccc4ccc1c2c34)C(C)=O | > 100 µM | 49.1 µM
45 | CC1(C)[C@@H](OC(N)=O)[C@H]2O[C@H]2[C@]2(C=O)[C@H]3CC[C@]4(C)[C@@H](c5ccc(=O)oc5)[C@@H](Cl)C[C@]4(O)C3=CC[C@@H]12 | 0.0176 µM | 0.00628 µM
46 | Nc1ccc(S(=O)(=O)Nc2nccs2)cc1 | > 100 µM | –
47 | CC(C)=CCNc1ncnc2c1ncn2CCC#N | > 100 µM | –
48 | CCOC(=O)NC(Nc1ccc([N+](=O)[O-])cc1)(C(F)(F)F)C(F)(F)F | > 100 µM | –

Row | SMILES | TGI | GI50
49 | COc1cccc(/C=N/n2c(C)n[nH]c2=O)c1 | > 100 µM | –
50 | COc1ccc(NS(=O)(=O)c2ccc(NC(NC(=O)CC(C)C)(C(F)(F)F)C(F)(F)F)cc2)nn1 | > 100 µM | –
51 | COc1ccc2c(c1)CCN1CCc3ccccc3CC21 (stereo unspecified) | > 100 µM | –
52 | CCCCCCCCCCCCCCCCCCOc1ccccc1CC(=O)OCC[N+]1(C)CCCC1 | 22.1 µM | 8.22 µM
53 | Cc1ccc(S(=O)(=O)C(C#N)c2nc3ccccc3nc2-n2ccnc2)cc1 (stereo unspecified) | > 100 µM | –
54 | COc1ccc(CCN2COc3c([C@@H](C)CCC=C(C)C)ccc(C)c3C2)cc1OC | 11.6 µM | 3.03 µM
55 | O=C1CC2CCCC23CC2(CCN13)OCCO2 (stereo unspecified) | > 100 µM | –
56 | COc1cc(/C=C/c2ccc(OC)c(OC)c2)cc(OC)c1 | > 100 µM | –
57 | O=C1CSC(/C(=N/Nc2ccccc2)c2nc3ccccc3[nH]2)=N1 | > 100 µM | –
58 | Cn1c(=O)c(Cc2ccccc2F)cc2cnc(NC3CCOCC3)nc21 | > 25 µM | > 25 µM
59 | CCCCN=C(c1ccccc1)N1CCOCC1 | > 100 µM | –
60 | Cc1ncc(CCCN(C)C)cc1Nc1ncc2c(n1)-c1ccc(C(F)(F)F)cc1NC(=S)C2 | 18.8 µM | 2.5 µM
61 | Cn1c2ccccc2c(=O)c2ccc(Cl)cc21 | > 10 µM | –
62 | COc1ccc(CC2NCCc3cc(OC)c(OC)cc32)cc1Br (stereo unspecified) | > 100 µM | –
63 | C=CCc1ccc(Oc2cc(CC=C)c3c(c2O)O[C@@H](CO)[C@H]3c2ccc(O)c(-c3cc(CC=C)ccc3O)c2)cc1 | > 100 µM | –
64 | COc1ccc2nc(NC(=O)C(=O)C(C#N)c3ccc([N+](=O)[O-])cc3)sc2c1 (stereo unspecified) | > 100 µM | –
65 | O=C1CCC(O)=C1N=Nc1ccccc1 | > 100 µM | –
66 | CCCCCCCCCCCC(=O)OCC1OC(OC)C(NC(=O)N(CCCl)N=O)C(O)C1O (stereo unspecified) | 26.9 µM | –
67 | COc1cc2[nH]c(C(=O)c3cc(OC)c(OC)c(OC)c3)c(N)c2cc1C#CC1CC1 | > 100 µM | > 100 µM
68 | COc1cccc(C#Cc2ccccc2C#CCCCCO)c1 | 26 µM | 12.3 µM
69 | CC1CCCC(CC(=O)O)(CC(=O)O)C1 (stereo unspecified) | > 100 µM | –
70 | Nc1ccn(C2OC(CO)C(O)C2O)c(=O)c1 (stereo unspecified) | > 625 µM | –
71 | CC(=O)NC1c2ccccc2C(C)(C)C12CCC1(CC2)OCCO1 (stereo unspecified) | > 100 µM | –
72 | Nc1ccc(-c2nc3ccc(Cc4ccc5nc(-c6ccc(N)cc6)[nH]c5c4)cc3[nH]2)cc1 | 16.5 µM | 4.26 µM
